Source: PubChem BioAssay AID488969 (Vanderbilt High Throughput Screening Facility, 2010)
The full ranking holds about 110,000 compounds; the median of “z-score” is about -0.1, and the highest 2% start at about 2. The list shows a part of the results. Calls of active or inactive are those of the source.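 Rule for the calls: active = z-score in the third read window above 3 or below -3; inactive = the rest.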

target: Metabotropic glutamate receptor 8 (Rattus norvegicus) (UniProt P70579); assay: mGluR8 Gi/Go-coupled signaling modulation – cell-based, rat, thallium flux, HTS, primary screen (AID 488969); conditions: HEK293 rat mGluR8, GIRK (G protein-gated inwardly rectifying potassium channel) thallium flux, FluoZin2; at 10 µM; stronger effect = higher value; submaximal glutamate (EC20) added with thallium
Chain of UniProt P70579 (P70579 whole entry, looked up): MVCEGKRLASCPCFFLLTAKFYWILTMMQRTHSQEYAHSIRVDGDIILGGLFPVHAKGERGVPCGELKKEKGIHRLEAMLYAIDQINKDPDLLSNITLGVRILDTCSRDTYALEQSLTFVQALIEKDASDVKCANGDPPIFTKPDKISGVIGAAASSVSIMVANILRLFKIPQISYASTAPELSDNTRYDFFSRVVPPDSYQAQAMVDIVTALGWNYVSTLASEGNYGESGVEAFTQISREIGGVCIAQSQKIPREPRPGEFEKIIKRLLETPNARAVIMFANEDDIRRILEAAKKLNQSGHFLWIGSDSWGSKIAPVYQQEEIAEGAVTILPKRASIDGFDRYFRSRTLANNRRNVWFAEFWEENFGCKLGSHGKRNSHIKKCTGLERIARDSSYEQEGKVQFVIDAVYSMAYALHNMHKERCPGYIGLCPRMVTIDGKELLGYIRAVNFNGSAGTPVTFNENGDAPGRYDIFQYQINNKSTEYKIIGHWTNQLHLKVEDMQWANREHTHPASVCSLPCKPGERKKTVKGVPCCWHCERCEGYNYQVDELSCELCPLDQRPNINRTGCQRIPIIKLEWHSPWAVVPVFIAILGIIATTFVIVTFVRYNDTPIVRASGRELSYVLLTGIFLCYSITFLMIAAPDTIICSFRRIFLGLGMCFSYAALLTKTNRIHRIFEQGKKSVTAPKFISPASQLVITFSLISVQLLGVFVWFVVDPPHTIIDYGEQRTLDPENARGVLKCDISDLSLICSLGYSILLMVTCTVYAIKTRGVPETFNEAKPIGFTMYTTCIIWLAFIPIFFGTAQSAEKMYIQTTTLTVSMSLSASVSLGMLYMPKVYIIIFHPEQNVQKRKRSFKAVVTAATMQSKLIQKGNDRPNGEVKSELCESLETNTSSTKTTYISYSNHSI

Compared with `CCn1c(SCC(=O)Nc2nc3ccc(C)cc3s2)nc2c(c1=O)SC(C)C2` (stereo not drawn), `C=CCn1c(SCC(=O)c2cccs2)nc2sc(C)c(C)c2c1=O` is higher in z-score: -1.03 for the first, -0.231 for the second.

First: CCSc1nnc(-c2ccncc2)o1
Second: CC(C)(C)c1ccc(-c2nc(C#N)c(NCc3cccnc3)o2)cc1
The z-score of the first is higher: -0.0123 for the first, -0.284 for the second.

Going from `CSc1nsc(SC)c1NC(=O)N1CCCC1` to `O=C(Nc1ccccn1)C(=O)N1CCCCC1`, the z-score rises from 0.0681 to 0.0768.

Going from `CC(=O)c1ccc(NC(=O)CSCCO)cc1` to `CCCC(=O)Nc1ccc(C(=O)N/N=C/c2ccc[nH]2)cc1`, the z-score falls from 0.274 to -0.169.

Going from `Cc1ccccc1Nc1nc(N)nc(CSCC(=O)Nc2cccc(Br)c2)n1` to `Cc1ccccc1OCC(=O)Nc1ccc2c(c1)Cc1ccccc1-2`, the z-score falls from -0.135 to -0.198.

Compared with `COc1ccc(C)cc1N(C(=O)c1ccccc1F)c1nc2ccccc2s1`, `COc1ccc(N(C)C(=O)c2cc3c(Cl)nc4ccccc4c3s2)cc1` is higher in z-score: -0.537 for the first, -0.115 for the second.

First: O=C(NCc1ccco1)c1cc(S(=O)(=O)N2CCOCC2)ccc1Cl
Second: COc1cc(S(=O)(=O)N2CCN(c3ccc(F)cc3)CC2)ccc1Cl
The z-score of the first is lower: 0.348 for the first, 0.617 for the second.

First: CCOC(=O)C(CC)Sc1nnc2c3cc(C)ccc3n(C)c2n1 (stereo not drawn)
Second: CCOC(=O)c1ccc(NC(=O)CSc2nnc(CNc3ccc(C)cc3)n2C)cc1
The z-score of the first is lower: -0.798 for the first, -0.198 for the second.

Compared with `Cc1n[nH]c(C)c1C(=O)CC1(O)C(=O)N(Cc2ccccc2)c2ccc(Br)cc21` (stereo not drawn), `COc1ccc(Cl)cc1N(CC(=O)N1CCN(Cc2ccccc2)CC1)S(C)(=O)=O` is higher in z-score: -0.471 for the first, -0.117 for the second.

Going from `CCn1c(SCC(=O)Nc2ccc(OC)cc2)nnc1-c1ccco1` to `COc1cccc(-c2nnc(SCC(=O)NCc3ccc4c(c3)OCO4)n2Cc2ccco2)c1`, the z-score falls from -0.0548 to -0.486.

Going from `C=CCn1c(=O)c2c(C)c(C)sc2n2c(Nc3ccccc3)nnc12` to `C=CCn1c(CCC(=O)O)ccc1-c1ccccc1`, the z-score rises from -0.666 to -0.312.

Compared with `CCCCOc1ccc(N2C(=O)CC(NCCc3ccc(S(N)(=O)=O)cc3)C2=O)cc1` (stereo not drawn), `CCOC(=O)C(Cc1ccccc1)NS(=O)(=O)c1ccc(NC(C)=O)cc1` (stereo not drawn) is lower in z-score: 0.405 for the first, -0.022 for the second.

First: C=CCOc1ccc(Br)cc1CNCCCN1CCOCC1
Second: Cc1ccc(N(CC(O)CN2CCOCC2)S(=O)(=O)c2ccc3ccccc3c2)cc1 (stereo not drawn)
The z-score of the first is lower: -0.208 for the first, 1.8 for the second.

`CCOC(=O)c1c(-c2ccccc2)csc1NC(=O)/C(C#N)=C/c1ccc(O)c(OC)c1` and `O=C(COC(=O)c1ccccc1NC(=O)c1ccco1)Nc1ccc2c(c1)OC(F)(F)O2` are the same in z-score: 0.0797 for the first, 0.0797 for the second.

First: COc1ccc(-c2csc(N3C(=O)C4C5c6ccccc6C(c6ccccc65)[C@@H]4C3=O)n2)cc1 (stereo partly drawn)
Second: COc1ccc(C(=O)OC(C(=O)c2ccccc2)c2ccccc2)cc1 (stereo not drawn)
The z-score of the first is higher: 0.33 for the first, -0.0598 for the second.

First: Fc1cccc(NC(=S)NCc2cccnc2)c1
Second: O=C(O)Cc1ccc(NC(=S)Nc2cccc(Cl)c2Cl)cc1
The z-score of the first is higher: 0.461 for the first, 0.436 for the second.

First: COc1ccc(C(=O)/C(C#N)=N/Nc2ccccc2[N+](=O)[O-])cc1
Second: COc1ccc(-n2nnc3c(SCC(=O)NCc4ccco4)ncnc32)cc1
The z-score of the first is higher: 0.502 for the first, -0.199 for the second.

Compared with `Cc1nc2ccc(NC(=O)c3cccc(S(=O)(=O)N(C)c4ccccc4)c3)cc2s1`, `Cc1nc2ccccc2n1/C(=N/S(=O)(=O)c1ccc(Br)cc1)c1ccccc1` is lower in z-score: -0.293 for the first, -0.603 for the second.

Compared with `Cn1nc(C(=O)OCC(=O)N2CCc3ccccc32)c2ccccc2c1=O`, `c1ccc(NC2=Nc3ccccc3CC2)cc1` is higher in z-score: -2.23 for the first, 0.639 for the second.

Compared with `C=CC(=O)NCCCc1cc(C(C)(C)C)c(O)c(C(C)(C)C)c1`, `CCOc1ccc(CC(=O)C2C(=O)CC(C)(C)CC2=O)cc1OCC` is higher in z-score: -0.193 for the first, 0.508 for the second.

Going from `CC1CC(C)CN(C(=O)CSC2=Nc3ccccc3C3=NC(Cc4c[nH]c5ccccc45)C(=O)N23)C1` (stereo not drawn) to `O=C(C1=NN[C@@H]2C(=O)N(c3ccccc3C(F)(F)F)C(=O)[C@H]12)c1ccc2ccccc2n1`, the z-score rises from -0.201 to 0.641.

Going from `COc1ccc2nc(SCC(N)=O)cc(C)c2c1` to `CCCn1c(SC(C(=O)Nc2cccc(OC)c2)c2ccccc2)nc2ccccc2c1=O` (stereo not drawn), the z-score rises from -0.286 to -0.276.

First: O=S(=O)(c1ccccc1)N1CCN(C2CCCCCCC2)CC1
Second: COc1ccc(N2C(=O)CC(N3CCCC4CCCCC43)C2=O)cc1 (stereo not drawn)
The z-score of the first is lower: 0.777 for the first, 1.86 for the second.

Compared with `C=CCN1C(=O)/C(=C/c2ccc(N(C)C)cc2)S/C1=N\c1nnc(CC)s1`, `CC(=O)N(C)c1ccc(OCC(O)Cn2c3ccc(Cl)cc3c3cc(Cl)ccc32)cc1` (stereo not drawn) is higher in z-score: -0.0819 for the first, 0.188 for the second.

Going from `O=C(NCc1ccc2c(c1)OCO2)c1ccc(=O)[nH]c1` to `O=C(CSc1ccc(-c2ccco2)nn1)NCc1ccccc1Cl`, the z-score falls from 0.293 to -0.517.

First: C(=N\n1cnnc1SCc1ccccc1)/c1ccco1
Second: c1ccc(CCN2CN=C(Nc3nc4ccccc4o3)NC2)cc1
The z-score of the first is higher: 0.0511 for the first, -0.027 for the second.

First: CSCCC1NC2(C(=O)Nc3c2ccc(Cl)c3C)[C@@H]2C(=O)N(C3CCCC3)C(=O)[C@H]12 (stereo partly drawn)
Second: Cc1cc(C)cc(-n2c(O)c(C=NC3CCS(=O)(=O)C3)c3ccccc3c2=O)c1 (stereo not drawn)
The z-score of the first is higher: 1.21 for the first, -0.376 for the second.

Compared with `O=C(c1ccc([N+](=O)[O-])cc1)N1CCOC12CCN(c1ncc(C(F)(F)F)cc1Cl)CC2`, `O=C(c1ccccc1F)N1CCN(c2ccccc2)CC1` is higher in z-score: -0.0523 for the first, 0.0562 for the second.

Going from `CCn1nnnc1-c1ccc(OC)c(S(=O)(=O)Nc2ccc(OC)cc2)c1` to `CCn1c(-c2ccc(N)cc2)nc2ccccc21`, the z-score falls from 0.233 to -0.0962.

Going from `CCOC(=O)c1oc2nc(C)c3c(c2c1N)CC(C)(C)OC3` to `COCCOC(=O)C1=C(N)Oc2c(oc(CO)cc2=O)C1c1ccccc1F` (stereo not drawn), the z-score falls from 0.0983 to -0.347.

Compared with `COc1cc2c(cc1OC)C(c1cccs1)CC(=O)N2` (stereo not drawn), `COc1cc(C(=S)N2CCOCC2)cc(OC)c1OC(=O)c1cc([N+](=O)[O-])c(C)c([N+](=O)[O-])c1` is higher in z-score: -0.92 for the first, 0.321 for the second.

Going from `Cc1cc(NC(=O)/C=C/c2cccc(F)c2)n(-c2nc3ccccc3[nH]2)n1` to `CC(C)(C)n1nnnc1C(c1ccc(C(F)(F)F)cc1)N(Cc1ccc(F)cc1)Cc1ccco1` (stereo not drawn), the z-score falls from 0.306 to -0.353.

Going from `Cc1nnc(Sc2c(N)n(C)c(=O)[nH]c2=O)s1` to `COC(=O)CSc1nnc(C)c(=O)[nH]1`, the z-score rises from -0.32 to 0.343.

`Cc1n[nH]c(C)c1CCOc1ccc(C(C)C)cc1` was tested, and the z-score was 0.611.

`O=S(=O)(Cc1ccccc1)N1CCc2ccccc21` was tested, and the z-score was active: -4.91.
